# From PubChem BioAssay AID1745853 (National Center for Advancing Translational Sciences (NCATS), 2022)
# Values joined by “and” are separate entries in the source; they are usually repeats but may differ in a detail not shown here. Equal values may be shown once. The list shows a part of the results. Shown are side measurements of this screen, not its main read-out; they come without a call.
# Key:
# Assay in all cases: Primary Screen for Target Class Profiling of Small Molecule Inhibitors of Methyltransferases
# [1] = molecular target: Glycine N-methyltransferase (Homo sapiens) (UniProt Q14749); conditions: purified enzyme, MTase-Glo SAH luminescence; measured here: GNMT inhibition; at 40 µM; stronger effect = lower value
# Outline: (§1)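 Each enzyme was reacted with SAM and its substrate, with compounds tested once at 40 uM; SAH formed was read by MTase-Glo luminescence.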
# [2] = molecular target: Guanidinoacetate N-methyltransferase (Homo sapiens) (UniProt Q14353); conditions: purified enzyme, MTase-Glo SAH luminescence; measured here: GAMT inhibition; at 40 µM; stronger effect = lower value
# Outline: as §1
# [3] = molecular target: Histamine N-methyltransferase (Homo sapiens) (UniProt P50135); conditions: purified enzyme, MTase-Glo SAH luminescence; measured here: HNMT inhibition; at 40 µM; stronger effect = lower value
# Outline: as §1
# [4] = molecular target: Nicotinamide N-methyltransferase (Homo sapiens) (UniProt P40261); conditions: purified enzyme, MTase-Glo SAH luminescence; measured here: NNMT inhibition; at 40 µM; stronger effect = lower value
# Outline: as §1
# [5] = molecular target: Phenylethanolamine N-methyltransferase (Homo sapiens) (UniProt P11086); conditions: purified enzyme, MTase-Glo SAH luminescence; measured here: PNMT inhibition; at 40 µM; stronger effect = lower value
# Outline: as §1
# % is set by controls: 0 for no effect and ±100 for the full control effect.
Structure (SMILES),"activity change, negative = inhibition [1]","activity change, negative = inhibition [2] [%]","activity change, negative = inhibition [3]","activity change, negative = inhibition [4]","activity change, negative = inhibition [5]"
CCn1ccc(C(=O)N2CCCn3ccnc3C2c2cnn(C)c2)n1 (stereo not given),-1.25%,-3.1,1.76%,-0.189%,9.85%
CCC(C)NC(=O)c1ccc2c(=O)n(CC(C)C)c3nn(CC(=O)c4cc(C)ccc4C)c(=O)n3c2c1 (stereo not given),-2.64%,-0.566,-0.118%,-6.56%,-2.09%
Cc1ccc(C(=O)N(CCCN)C(c2oc3cc(Cl)ccc3c(=O)c2Cc2ccccc2)C(C)C)cc1 (stereo not given),-1.09%,10.1,0.43%,-29.9%,0.034%
C[S+](=O)([O-])N1CCn2c(nnc2-c2ccccc2)C1,-3.03%,-2.04,-0.699%,-5.48%,-4.27%
Cc1noc(C)c1-c1cc2cc(C(C)C)oc2c(-c2ccc(CO)cc2)n1,-9.88%,-1.68,-8.79%,-27.2%,-8%
CCOCCCNC(=O)C1c2c(n(C)c3ccccc23)SCC(=O)N1c1ccc(C)c(Cl)c1 (stereo not given),6.95%,0,4.88%,-3.12%,7.62%
Cc1cc2cc(-c3c(C)noc3C)nc(N3CCN(c4ccccn4)CC3)c2o1,-10.5%,-8.28,-9.72%,-11.2%,0.745%
Cc1c(CN2CCN(S(C)(=O)=O)CC2)sc2c(N3CCOCC3)nc(-c3cnc(N)nc3)nc12,-50.1%,3.22,-3.65%,-21.2%,-16.2%
CC1CCC(NC(=O)C2(C)Cn3c(cc4sccc43)C(=O)N2Cc2ccc(Cl)cc2)CC1 (stereo not given),2.67%,0,6.55%,-4.25%,0.432%
Cn1ccnc1CN1CCOc2cc([S+](=O)([O-])Nc3ccccc3)ccc2C1,-3.33%,-7.32,-0.16%,-7.84%,-1.42%
O=C1NCCCCCN(S(=O)(=O)c2ccc3c(c2)OCCO3)[C@H]2CCC[C@@H]12,-6.14%,-5.74,-2.89%,-5.69%,-0.383%
CCCN1CCN(CCCNC(=O)c2cc3n(n2)CC(C)(C(=O)NC2CCCC2)N(CC)C3=O)CC1 (stereo not given),4.32%,0.474,2.14%,5.24%,4.17%
CCOc1ccc(-c2cc3n(n2)CC(C)(C(=O)NC2CCCCC2)N(CCCOC)C3=O)cc1 (stereo not given),-6.29%,3.74,-0.016%,5.13%,0.314%
CCOCc1nc(C2CCCN2S(=O)(=O)c2cn(C)cn2)no1 (stereo not given),-4.28%,-8.23,-1.25%,-14.3%,-2.62%
Cc1cc(Nc2nc(N[C@@H](C)c3ncc(F)cn3)ncc2Cl)n[nH]1,-9.32% and -16.8%,-4.49,5.05% and -7.28%,-20.6% and -21.1%,-1.18% and 21.2%
C=C1CC[C@@H]2[C@@](C)(CO[C@@H]3O[C@H](CO)C(O)[C@H](O)C3O)[C@H](O)CC[C@@]2(C)[C@@H]1CC/C(C)=C/CO (stereo not given in full),-0.268%,-4.11,5.95%,-15%,-8.93%
